Measurements from ChEMBL document CHEMBL4888484, “Replenishing the malaria drug discovery pipeline: Screening and hit evaluation of the MMV Hit Generation Library 1 (HGL1) against asexual blood stage Plasmodium falciparum ,using a nano luciferase reporter read-out” (2022).
In all, about 150,000 compounds went through this assay and about 540 (0.36%) showed an effect of 50% or more. The list shows a part of the results.

tested on: Plasmodium falciparum; assay: Primary screen in NF54 nanoGlo assay, in single point, at 2uM, 72h; a lower Z score goes with more inhibition; assay type: functional, Erythrocyte; conditions: timepoint 72 hour

| Structure (SMILES) | % Inhibition | Z score |
| --- | --- | --- |
| COc1ccc(CNC(=O)C(=O)NCCO)cc1 | -6% | 0.7 |
| CC(C)(C)CC(=O)NC[C@H](O)c1ccc(Cl)s1 | -6% | 0.72 |
| CC(C)n1[nH]c(=O)c2c1NC(=O)C[C@@H]2c1cccc2nccnc12 | 37% | -4.15 |
| Cc1ncc(-c2nc(-c3ccco3)nn2C(C)(C)C)cn1 | 1% | -0.07 |
| O=C(c1cc(C2CC2)n(CC(=O)N(Cc2ccccc2)c2ccccc2)n1)N1CCOCC1 | -2% | 0.45 |
| O=S(=O)(c1ccc(F)cc1)N1CCN(Cc2noc(-c3ccc(Cl)cc3Cl)n2)CC1 | 8% | -1.16 |
| O=C(COc1ccc2c(c1)OCO2)Nc1ccc2c(c1)COC2=O | -3% | 0.58 |
| c1ccc(CNc2nnc(NC3CCCCC3)o2)cc1 | -9% | 1.83 |
| O=C(NC1CCCCC1)c1nn(-c2ccc(F)cc2)c2ccccc2c1=O | -15% | 2.13 |
| Cc1ccc(CN(C)Cc2c(C)noc2C)o1 | 27% | -3.03 |
| COc1ncncc1NC(=O)N[C@@H](Cc1ccccc1)C1CC1 | 7% | -0.96 |
| Cc1nc(-c2nnc(NC(=O)NCc3cccs3)o2)cs1 | -8% | 1.1 |
| O=C(CN1CCN(c2ccccc2F)C1=O)NCCc1cccs1 | -5% | 0.56 |
| CCn1nc(C2CC2)cc1C(=O)Nc1ccnn1-c1ccc(C)nn1 | -19% | 1.88 |
| CC(C)C[C@H](O)C(=O)NCCn1cc(Cl)cn1 | -7% | 0.82 |
| CC1(C)Cc2cc(C(=O)N[C@@](C)(Cn3cccn3)C(N)=O)ccc2O1 | -4% | 0.56 |
| Cn1nc(CN(C(=O)c2ccco2)C2CCCC2)c2c1CCC2 | -7% | 1.29 |
| COCc1ccc(CN2CCC(n3nccc3NC(=O)C3CCCC3)CC2)o1 | 1% | -0.11 |
| N#CCC[C@H](C#N)CN1C(=O)NC2(Cc3ccccc3C2)C1=O | -8% | 1.2 |
| CCOc1ccc(N2CCN(CC(=O)NCCCN3CCCC3=O)C2=O)cc1 | -6% | 0.96 |
| COc1ccc2ncn(CCN3CCCC3=O)c(=O)c2c1 | -4% | 0.46 |
| O=C1CN(C(=O)C[C@H]2CCCOC2)c2cc(F)c(F)cc2N1 | -4% | 0.59 |

| Structure (SMILES) | % Inhibition | Z score |
| --- | --- | --- |
| OC1(c2nc(-c3ccc(Br)o3)no2)CCCCC1 | 13% | -1.71 |
| Cc1nn(CCNc2cccc(C#N)n2)c(C)c1C | -15% | 2.95 |
| O=C(O)CCNC(=O)[C@H]1CC[C@H](Cn2nnc3ccccc3c2=O)CC1 | -15% | 2.01 |
| CN(C)c1ncccc1NC(=O)C1C2CCCC21 (configuration not stated) | 1% | -0.19 |
| C[C@@H](C(=O)Nc1nc2c(s1)CCCC2)n1cccn1 | -15% | 2.06 |
| COc1cc(NC(c2ccccc2)c2ccccc2)cc(OC)c1OC | 12% | -1.58 |
| COc1cccc(CNC(=O)c2ccc(CN3CC(=O)N4CCCC[C@H]4C3=O)cc2)c1 | -6% | 0.71 |
| O=C(NCCCc1ccccc1)c1cc2n(n1)CCN(Cc1ccccc1Cl)C2=O | -12% | 1.34 |
| COc1ccc(F)cc1C(=O)N1C[C@@H](CC(=O)O)[C@@H](c2c[nH]nn2)C1 | 0% | -0.02 |
| O=C(NC1(C(=O)O)CCCCC1)c1ccc2c(c1)OCCNC2 | 1% | -0.07 |
| COCCN1C[C@@H](c2nc(-c3ccc(F)c(C)c3)no2)CC1=O | -9% | 1.27 |
| CC1(C)C(c2ccccc2)CCN1C(=O)Nc1cnc2c(c1)CC(N)CC2 (configuration not stated) | -2% | 0.23 |
| CC(C)CN(Cc1ccsc1)C(=O)c1ncc(F)cc1F | -3% | 0.45 |
| COC(=O)c1cccc(NC(=O)c2cn(C[C@H](O)c3ccccc3)nn2)c1 | -5% | 1 |
| Cn1ncc2c(=O)n(Cc3nc(-c4c(F)cccc4F)cs3)cnc21 | -14% | 1.97 |
| CN(Cc1ccco1)S(=O)(=O)N(C)C1CCCCC1 | 3% | -0.4 |
| Cc1cc(S(=O)(=O)Nc2cnoc2C)sc1Cl | 13% | -2.47 |
| COc1ccccc1CC1CCCN(C(C)c2nnc(C)o2)C1 (configuration not stated) | -3% | 0.44 |
| Cc1nc(C)c(C(=O)Nc2ccc3c(c2)OCCO3)s1 | -6% | 1.02 |
| CCOc1ccc(Cl)cc1CN(C)C(=O)[C@@H]1CCC(=O)NC(=O)N1 | -5% | 0.53 |
| CN(CCCc1cccnc1)C[C@H]1CCCCN1C | -13% | 1.15 |
| COc1cc2c(cc1OC)CN(C(=O)OC(C)(C)C)[C@H](C(=O)NCc1ccco1)C2 | -8% | 1.59 |

| Structure (SMILES) | % Inhibition | Z score |
| --- | --- | --- |
| CC(C)CCc1ccc(N2C(=O)N[C@@](C)(CCF)C2=O)nc1 | -5% | 0.64 |
| Cc1ccccc1C(NC(C)CS(=O)(=O)c1ccccc1)C1CC1 (configuration not stated) | -6% | 0.58 |
| Cc1nc([C@H](C)NC(=O)c2cc3ncccn3n2)c(C)s1 | -9% | 1.42 |
| O=C(N1CCCC1)[C@]1(F)CCCN(Cc2cccnc2)C1 | -30% | 2.61 |
| CCN(Cc1cscn1)[C@H]1CCOC(C)(C)C1 | 4% | -0.93 |
| COCCNc1nc2c(c(N3CCCCCC3)n1)CCNCC2 | 5% | -0.97 |
| CCC1(CC)C(OC)CC1N(C)CCS(N)(=O)=O (configuration not stated) | 0% | -0.06 |
| CN(C)[C@@H](CNC(=N)Nc1ccccc1)c1cccs1 | -1% | 0.15 |
| CC1(C)CN(C(=O)CN2CC[C@H](Nc3ncccn3)C2)CCO1 | -7% | 0.93 |
| CC(=O)N1CCC(NC(=O)c2cc3c(C)nn(-c4ccccc4)c3s2)CC1 | -7% | 1 |
| COC(C)(C)C[C@H](C)NCCn1nc(C)c(Cl)c1C | 1% | -0.11 |
| CC(C)Cn1nc2n(c1=O)CC1CCC(C2)N1C(=O)c1cc[nH]n1 (configuration not stated) | -2% | 0.22 |
| CC1CCCC(OCC(=O)NC(C)CCN2CCOCC2)C1 (configuration not stated) | 4% | -0.58 |
| CC(=O)N1CC[C@]23C(=O)N(CC(=O)N(C)CCCOc4cccc(c4)[C@H]12)c1ccccc13 | -4% | 0.72 |
| COc1nc2c(cc1CNC(=O)[C@H](C)c1ccccc1)C(=O)N(C1CCCC1)C2 | -2% | 0.21 |
| CC(C)(C(=O)N1C[C@@H]2CS(=O)(=O)C[C@@H]2C1)c1ccc(F)cc1F | -2% | 0.46 |
| CC(=C(F)C(=O)N(C)CCc1ncc(Br)cn1)C1CC1 | -11% | 1.93 |
| FCC1CN(Cc2ccc3cn[nH]c3c2)C1 | -1% | 0.19 |
| Cc1cnn([C@H]2CCN(C(=O)CCC(C)(C)C)C2)c1 | 27% | -3.58 |
| Nc1nc2c(cnc3c(F)cccc32)c(=O)[nH]1 | 1% | -0.1 |
| OC(COCc1cccs1)CN1CCCC1Cn1cncn1 (configuration not stated) | -16% | 1.32 |
| C[C@@]1(CO)CN(Cc2ccccc2)C[C@@H]2CN(C3CCOCC3)CCN21 | -2% | 0.28 |

| Structure (SMILES) | % Inhibition | Z score |
| --- | --- | --- |
| O=C(Nc1cc(C2CC2)ccn1)c1ccncn1 | -16% | 2.06 |
| Cc1ccc(C(=O)N2CCn3c(nnc3C3CCN(S(=O)(=O)C(C)C)CC3)C2)c(C)c1 | -4% | 0.66 |
| COCCNC(=O)NCC1(O)CCCC1 | 8% | -0.93 |
| COc1ccccc1[C@@H]1CC(c2cccn2C)=NN1C(=O)CN(C)C(=O)C1CCC1 | -6% | 0.94 |
| CCCC(C)(CNC(=O)CC1CCCO1)NC(=O)CC1CCCO1 (configuration not stated) | -5% | 0.7 |
| Cc1ccc2c(NC(=O)NCC3(CO)CCC3)cccc2n1 | -9% | 1.22 |
| O=C([C@@H]1COc2ccccc2O1)N1CCc2sccc2C1 | -7% | 1.29 |
| CCN(c1ccc2sc(C(=O)N3CCN(c4ccccc4F)CC3)cc2c1)S(C)(=O)=O | 4% | -0.54 |
| CN(c1ccc(Cl)c(C(=O)N2CCN(c3ccccc3)CC2)c1)S(C)(=O)=O | -2% | 0.31 |
| Cc1cc(C(=O)N2CCCN(Cc3ccc(F)cc3)[C@H](C(C)C)C2)no1 | -1% | 0.15 |
| O=C(CC1=Nc2ccccc2S(=O)(=O)N1)Nc1ccccc1F | -13% | 1.5 |
| CO[C@H]1CN(C(=O)CCc2c[nH]c3ccc(C)cc23)C[C@H]1OC | -2% | 0.33 |
| Cc1ccn(-c2ccnc(NCc3ccc(F)cc3F)n2)n1 | -2% | 0.36 |
| O=S1(=O)C[C@H](NC2CCCC2)[C@@H](S(=O)(=O)c2ccccc2)C1 | -2% | 0.24 |
| NC(=O)[C@H]1CC[C@@H](NC(=O)N2CCO[C@H](c3ccc(Cl)cc3)C2)C1 | -5% | 0.7 |
| O=C(CN1CCCS1(=O)=O)Nc1ccccc1Cc1ccccc1 | -7% | 0.66 |
| Cc1nc(N2CCCC[C@H]2c2nnc[nH]2)c(Cl)cc1C#N | -4% | 0.72 |
| CN(C)C(=O)CCc1cccc(NC(=O)N2CCN3CCN(C)C(=O)[C@@H]3C2)c1 | -6% | 1.06 |
| CC(C)CN1C(=O)c2ccccc2N[C@@H]1c1cn2ccccc2n1 | 4% | -0.46 |
| O=C(O)c1cc2cc(-c3cccc(C(F)(F)F)c3)ccc2[nH]c1=O | -11% | 1.46 |
